Results published in PubChem BioAssay AID1865 (National Center for Advancing Translational Sciences (NCATS), 2009).
Screen size: about 280,000 compounds; about 540 (0.19%) were called active. This list was built around the results that the source calls inconclusive (neither active nor inactive); the mix of calls is not that of the screen. The call rests on the fitted dose curve; in most records, active means well fitted activation curve with a large enough effect; inconclusive means small, poorly fitted or top-dose-only effect; inactive means flat fitted curve, though single readings scatter. Potencies beside an inconclusive call are fits to weak or partial responses and may not hold up.

Assay: Quantitative High-Throughput Screen for Regulators of Epigenetic Control; further: nearly all actives have a fitted effect of over 60% in size; on GFP activation: % of control where 0% means no effect
Settings: murine LDR cells, GFP reporter derepression, 30 h; GFP activation: at 53.9 µM (top of the series)
Outline: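 Readout is the number of GFP-expressing murine LDR cells, counted by cytometry following washing. Cells were treated with compound for 30 h at 37 C; the stably integrated CMV-GFP locus is normally silent.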
Potency means the concentration at half of the fitted maximal effect; tags describe the fitted curve by direction and shape.

| Structure (SMILES) | GFP activation | Potency |
| --- | --- | --- |
| Cc1nn2c(Nc3ccccc3)c3c(nc2c1-c1ccccc1)CCC3 | inactive: -1.92% |  |
| Cc1ccc(S(=O)(=O)/N=C2/C=C(Sc3ncn[nH]3)C(=O)c3ccccc32)c(C)c1 |  | inconclusive: 35.5 µM [activator, single point] |
| Cn1c(=O)[nH]c(=O)c2c1nc(CN1CCN(c3cccc(Cl)c3)CC1)n2CCCc1ccccc1 | inactive: 0% |  |
| COc1ccc(Cn2c(C(=O)O)c(CNCc3ccc(SC)cc3)c3ccc(OC)cc32)cc1 | inactive: -2.41% |  |
| Cc1nc2ncccn2c1-c1csc(NCc2ccco2)n1 | inactive: 0.723% |  |
| CCCCOc1ccc(-c2cc(C(F)(F)F)c(C#N)c(SCC(=O)O)n2)cc1 |  | active: 25.1 µM |
| COc1cc(N2CCCC2)c(OC)cc1/C=C(/C#N)c1ccc(F)cc1 |  | active: 14.1 µM |
| N#Cc1ncc(-c2ccc3c(c2)OCCOCCOCCOCCO3)nc1C#N |  | inconclusive: 35.5 µM [activator, single point] |
| CCc1nn(CC(=O)Nc2ccc(NC(C)=O)cc2)c(=O)c2cc3sccc3n12 |  | inconclusive: 35.5 µM [activator, single point] |
| Cc1ccc(-n2c(N)c(-c3nc4ccccc4n3C)sc2=S)cc1 |  | inconclusive: 35.5 µM [activator, single point] |
| COc1ccc(C(CC(=O)N2CCOCC2)c2c(O)cc(OC)cc2OC)cc1 (centres undefined) |  | inconclusive: 25.1 µM [activator, single point] |
| COc1ccc(CCn2c(N)c(C(=O)NCc3ccco3)c3nc4ccccc4nc32)cc1OC |  | inconclusive: 25.1 µM [activator, single point] |
| On1onc2c3cc(-c4ccccc4)nc3ccc21 |  | active: 15.8 µM |
| COCCCn1c(=S)[nH]c2ccc(N3CCOCC3)cc2c1=O | inactive: -0.0165% |  |
| COc1ccc(C2CC(=O)c3cc(-c4nc(-c5cccc(Cl)c5)cs4)c(=O)[nH]c3C2)cc1 (centres undefined) |  | inconclusive: 15.8 µM [activator, single point] |
| COc1cc(C(=O)NC(=S)Nc2ccc3c(c2)C(=O)N(C)C3=O)cc(OC)c1OC |  | inconclusive: 15.8 µM [activator, partial curve, poor fit] |
| CC(=O)Oc1c(C)cc(Cl)cc1C(=O)Nc1ccc([N+](=O)[O-])cc1Cl | inactive: -3.17% |  |
| CCS(=O)(=O)c1ccc(OC)c(N=Nc2ccc(O)c3ncccc23)c1 |  | inconclusive: 14.1 µM [activator, single point] |
| Cc1ccc(Cn2c(=O)n(-c3ccc(C)c(C)c3)c(=O)c3c(C)c(C)sc32)cc1 |  | inconclusive: 11.2 µM [activator, partial curve] |
